These are yes or no findings as the source states them, for the method shown. Binding seen in cells or lysates may run through a third protein. Some binding calls cover weakened binding; strength is not graded here. For some of these results: Where a sequence is shown, tags or fusion partners need not be part of it.
How the values were obtained:
Tom7HA (S. cerevisiae) = target: T1, Tom7HA (S. cerevisiae) (UniProt P53507); assay: co-IP; mitochondria with HA-tagged small Tom proteins lysed with 1% digitonin; anti-HA affinity matrix, 1 h at 4 °C; elution with SDS sample buffer, immunodetection (Fig. 4d)
T1 sequence: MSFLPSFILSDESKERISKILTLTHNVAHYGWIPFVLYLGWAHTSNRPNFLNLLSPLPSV

[1] = target: T2, _(ProtA)Sam50 (S. cerevisiae) (UniProt P53969); assay: pull-down; whole-cell extracts of ProtA-Sam50 cells expressing wild-type or mutant mdm10 forms, 1% digitonin; IgG-Sepharose, elution with TEV protease; SDS-PAGE and immunodetection (Fig. 2a)
T2 sequence: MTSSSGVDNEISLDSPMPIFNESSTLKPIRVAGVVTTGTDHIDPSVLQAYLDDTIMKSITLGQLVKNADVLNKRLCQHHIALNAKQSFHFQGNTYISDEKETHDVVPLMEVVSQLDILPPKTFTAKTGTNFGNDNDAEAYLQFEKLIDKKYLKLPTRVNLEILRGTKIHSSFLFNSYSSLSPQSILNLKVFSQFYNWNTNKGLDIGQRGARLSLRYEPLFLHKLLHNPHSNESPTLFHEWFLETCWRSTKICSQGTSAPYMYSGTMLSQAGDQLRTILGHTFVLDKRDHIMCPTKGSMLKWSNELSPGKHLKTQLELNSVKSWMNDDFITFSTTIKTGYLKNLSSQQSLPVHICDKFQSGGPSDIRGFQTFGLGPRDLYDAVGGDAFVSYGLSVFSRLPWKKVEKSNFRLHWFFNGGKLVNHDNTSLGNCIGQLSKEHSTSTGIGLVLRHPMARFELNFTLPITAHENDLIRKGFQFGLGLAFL

[2] = target: T2, _(ProtA)Sam50 (S. cerevisiae); assay: pull-down; whole-cell extracts of ProtA-Sam50 cells expressing wild-type or mutant mdm10 forms, 1% digitonin; IgG-Sepharose, elution with TEV protease; eluate on blue native electrophoresis, immunodetection with anti-Mdm10 (Fig. 2b, upper panel)
[3] = target: T3, GST-Tom22ΔN (S. cerevisiae) (UniProt P49334); assay: pull-down; GST-Tom22ΔN on Glutathione Sepharose 4b; mitochondria lysed in GST buffer (20 mM HEPES-KOH, pH 7.5, 10 mM Mg-acetate, 100 mM K-acetate, 10% glycerol) with 1% digitonin, 4 °C; elution by thrombin (Supplementary Fig. 3b); only the target purified
T3 sequence: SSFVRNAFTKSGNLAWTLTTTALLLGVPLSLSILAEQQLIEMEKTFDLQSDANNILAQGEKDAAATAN

- binding (Tom7HA (S. cerevisiae)): binds
- binding [1]: binds
- binding [2]: binds
- binding [3]: binds
B1: Mdm10 (mitochondrial distribution and morphology protein Mdm10), wild type (protein, UniProt P18409 1-493)
chain: MLPYMDQVLRAFYQSTHWSTQNSYEDITATSRTLLDFRIPSAIHLQISNKSTPNTFNSLDFSTRSRINGSLSYLYSDAQQLEKFMRNSTDIPLQDATETYRQLQPNLNFSVSSANTLSSDNTTVDNDKKLLHDSKFVKKSLYYGRMYYPSSDLEAMIIKRLSPQTQFMLKGVSSFKESLNVLTCYFQRDSHRNLQEWIFSTSDLLCGYRVLHNFLTTPSKFNTSLYNNSSLSLGAEFWLGLVSLSPGCSTTLRYYTHSTNTGRPLTLTLSWNPLFGHISSTYSAKTGTNSTFCAKYDFNLYSIESNLSFGCEFWQKKHHLLETNKNNNDKLEPISDELVDINPNSRATKLLHENVPDLNSAVNDIPSTLDIPVHKQKLLNDLTYAFSSSLRKIDEERSTIEKFDNKINSSIFTSVWKLSTSLRDKTLKLLWEGKWRGFLISAGTELVFTRGFQESLSDDEKNDNAISISATDTENGNIPVFPAKFGIQFQYST

Source: PMC5476798
